In publication PMC4528719, “Functional role of dimerization and CP190 interacting domains of CTCF protein in Drosophila melanogaster” (BMC Biology, 2015):
No constants are given. Whether binding was seen depends on the method and setting. Some results given as binding are weak or reduced against the parent protein; the word gives no strength. For part of these data: Where a sequence is shown, tags or fusion partners need not be part of it.

T1: GST–CP190 308–517 (Drosophila) (UniProt Q24478)
T1 sequence: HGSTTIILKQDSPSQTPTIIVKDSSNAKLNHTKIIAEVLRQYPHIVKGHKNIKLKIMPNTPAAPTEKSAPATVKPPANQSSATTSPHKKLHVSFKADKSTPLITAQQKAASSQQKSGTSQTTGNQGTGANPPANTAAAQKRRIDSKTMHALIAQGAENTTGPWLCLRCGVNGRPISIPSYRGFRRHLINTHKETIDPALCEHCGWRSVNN

T2: GST–CP190 308–468 (Drosophila) (UniProt Q24478)
T2 sequence: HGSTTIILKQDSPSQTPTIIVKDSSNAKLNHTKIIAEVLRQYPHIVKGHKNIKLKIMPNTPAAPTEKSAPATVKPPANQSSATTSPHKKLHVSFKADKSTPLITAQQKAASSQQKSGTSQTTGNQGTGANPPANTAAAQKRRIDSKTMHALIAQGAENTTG


Key:
[1] = target: T1, GST–CP190 308–517 (Drosophila); test: pull-down; GST–CP190 fragments on glutathione agarose, recombinant dCTCF-CTD in solution; 2 h room temperature, buffer C; washes with 500 mM NaCl (Fig. 3f); both purified
[2] = target: T2, GST–CP190 308–468 (Drosophila); test: as above
[3] = target: dCTCF NTD 1–125 (Drosophila melanogaster) (UniProt Q9VS55); test: cross-linking; one protein alone at 5 μM, increasing glutaraldehyde, 10 min at room temperature, 20 mM HEPES-KOH pH 7.7, 150 mM NaCl, 20 mM imidazole, 1 mM β-mercaptoethanol; SDS-PAGE, silver staining; both purified

binding [1] | binding [2] | binding [3] | Binder
binds weakly | binds weakly | – | dCTCF–CTD 612–818 protein (domain or fragment, UniProt Q9VS55 612-818) SANAREKRRRLKLGRNVRLQKDGTVITLIKDQYVDMDRDQEENEEDDNPESYDLAEIEPENSEAEDADDDVETIVSDPIRQRIKPAPIIINKQARLAASEKQPMIINQRLRSQRGTKTFHIKEEPDNSDFTVEWQGDDGEVMVVELVNGDEEVLVKHEPSANSKISAKNCFGFEDDDDYEEYGDGENEVDGASQEFLQLMDMIEQDS
– | – | binds weakly | dCTCF NTD 1–125 (domain or fragment, UniProt Q9VS55 1-125) MPRRTKKDEDPEDLQTFLNNFHKEIEGNSDEKVVNTILEAISAEAIDLDENGAEAGGSKPMEEAEADLDHAEEAEEEEEDDEDKYFIDDEGNCYIKTTPKKQKELQKKLKQAAAKPGKATRSVVS
